Data reported in PubChem BioAssay AID2427 (National Center for Advancing Translational Sciences (NCATS), 2010).
The list shows a part of the results. Shown are side measurements of this screen, not its main read-out; they come without a call. Compounds called inactive in the main read-out are mostly missing here.

What follows are compounds tested against 15-hydroxyprostaglandin dehydrogenase [NAD(+)] (Homo sapiens) (UniProt P15428) (assay: Thermal Shift Assay for Inhibitors of HPGD (15-Hydroxyprostaglandin Dehydrogenase)). Conditions: Recombinant HPGD thermal shift, SYPRO orange DSF, measured here: delta Tm with NADH cofactor, at 250 µM, stronger effect = higher value.
Chain of UniProt P15428 (P15428 whole entry, looked up): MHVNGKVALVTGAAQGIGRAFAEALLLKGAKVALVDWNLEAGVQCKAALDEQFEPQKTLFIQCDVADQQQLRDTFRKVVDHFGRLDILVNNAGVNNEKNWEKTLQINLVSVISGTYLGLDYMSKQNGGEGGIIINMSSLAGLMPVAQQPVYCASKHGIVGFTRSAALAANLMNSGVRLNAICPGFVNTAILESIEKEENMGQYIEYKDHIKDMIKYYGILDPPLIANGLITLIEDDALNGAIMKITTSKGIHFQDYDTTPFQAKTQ
Protocol: Assay Overview: Human 15-Hydroxyprostaglandin dehydrogenase (HPGD) catalyzes the inactivation of prostaglandin E2, and plays a major role in cancer biology by antagonizing the oncogenic potential of cyclooxygenase type 2 (COX2). Studies to assess the stability of human 15-PGDH in presence of compounds was performed as described (Niesen et al., 2007) with variations. References 1. Myung SJ, Rerko RM, Yan M, Platzer P, Guda K, Dotson A, Lawrence E, Dannenberg AJ, Lovgren AK, Luo G, Pretlow TP, Newman RA, Willis J, Dawson D, Markowitz SD. 15-Hydroxyprostaglandin dehydrogenase is an in vivo suppressor of colon tumorigenesis. Proc Natl Acad Sci U S A. 2006 Aug 8;103(32):12098-102. 2. Yan M, Rerko RM, Platzer P, Dawson D, Willis J, Tong M, Lawrence E, Lutterbaugh J, Lu S, Willson JK, Luo G, Hensold J, Tai HH, Wilson K, Markowitz SD. 15-Hydroxyprostaglandin dehydrogenase, a COX-2 oncogene antagonist, is a TGF-beta-induced suppressor of human gastrointestinal cancers. Proc Natl Acad Sci U S A. 2004 Dec 14;101(50):17468-73. 3. Yang L, Amann JM, Kikuchi T, Porta R, Guix M, Gonzalez A, Park KH, Billheimer D, Arteaga CL, Tai HH, Dubois R, Carbone DP, Johnson DH. Inhibition of Epidermal Growth Factor Receptor Signaling Elevates 15-Hydroxyprostaglandin Dehydrogenase in Non-Small-Cell Lung Cancer. Cancer Res. 2007 Jun 15;67(12):5587-5593. 4. Niesen FH, Berglund H, Vedadi M: The use of differential scanning fluorimetry to detect ligand interactions that promote protein stability. Nature protocols 2007; 2:2212-2221 NIH Chemical Genomics Center [NCGC] Structural Genomics Consortium [SGC]
HPGD was diluted to a final assay concentration of 1 uM in 100 mM Tris buffer, pH 8.0, containing 0.01% Tween-20 and 1:1000 SYPRO orange dye. The final assay volume is 10 ul, with or without 200 uM of either NAD+ or NADH. Compounds were added 1:5 from appropriate stock solutions in 10% (v/v) DMSO to comprise either 50 or 250 uM final concentrations. Heat denaturation curves were recorded using a RT-PCR instrument (Mx3005p, Agilent) applying a temperature gradient of 2 degree C/min. Analysis of the data was performed using DSF Analysis vers. 2.5 (ftp://ftp.sgc.ox.ac.uk/pub/biophysics) and Prism 5.0 (GraphPad Software, Inc.)
CC1CCN(C(=O)c2cc3nc(C4CC4)cc(C(F)(F)F)n3n2)CC1 showed a thermal shift (delta Tm) of 4.8 C.
In the case of CC1=CCC2C(=O)N(c3ccc(C(=O)N4CCCCCC4)cc3)C(=O)C2C1 (stereo unspecified), the thermal shift (delta Tm) is reported as 6 C.
Compound O=C(c1ccc(N2C(=O)C3CCCCC3C2=O)cc1)N1CCCCC1 (stereo unspecified) has a thermal shift (delta Tm) of 6.7 C.
Work on O=C(c1sc2cc([N+](=O)[O-])ccc2c1Cl)N1CCCCC1 yielded a thermal shift (delta Tm) of 6.4 C.
CC1CCCN(C(=O)c2sc3cc([N+](=O)[O-])ccc3c2Cl)C1 (stereo unspecified) showed a thermal shift (delta Tm) of 8.4 C.
Compound O=c1c2ccccc2sn1-c1cc(S(=O)(=O)N2CCOCC2)ccc1N1CCCC1 has a thermal shift (delta Tm) of 0 C.
Compound CC1CCCC(C)N1C(=O)c1cc2ncc(CCCl)cn2n1 (stereo unspecified) has a thermal shift (delta Tm) of 6.4 C.
CC1CCN(C(=O)c2ccc(CSc3ccc(Cl)cc3)cc2)CC1 was tested, and the thermal shift (delta Tm) was 7.1 C.
Work on COc1ccccc1C(=O)Nc1ccc(C(=O)N2CCCC2)cc1 yielded a thermal shift (delta Tm) of 4.7 C.
With Cc1ccccc1C(=O)N1CCc2ccccc2C1 the thermal shift (delta Tm) was 2.2 C.
In the case of O=C(NCCc1ccccc1)C1CCC(CNc2c(N3CCCCC3)c(=O)c2=O)CC1 (stereo unspecified), the thermal shift (delta Tm) is reported as 1.7 C.
With O=C(Nc1ccc(C(=O)N2CCCCC2)cc1)c1ccc(Br)cc1 the thermal shift (delta Tm) was 7.1 C.
In the case of Cc1ccc(S(=O)(=O)NCc2ccc(C(=O)N3CCc4ccccc4C3)cc2)cc1, the thermal shift (delta Tm) is reported as 1.6 C.
With Cc1ccc(CNC(=O)c2ccc(Cl)cc2[N+](=O)[O-])cc1 the thermal shift (delta Tm) was 5 C.
Work on COCCNC(=O)c1cc2oc3ccccc3c2n1C yielded a thermal shift (delta Tm) of 2.9 C.
O=C(c1ccc(CSc2ccccc2)cc1)N1CCCCCC1 gave a thermal shift (delta Tm) of 7.8 C.
